# Measurements published in PubChem BioAssay AID256 (DTP/NCI, 2004).
# Where “and” joins values, the source holds several entries; their conditions need not be identical. Equal entries are not always repeated. This continues a long series; more values of the same kind are listed elsewhere. Inconclusive results and toxic doses are left out.
# Test system: CD2F1 mice, L1210 leukemia ip, survival T/C
# Assay: NCI In Vivo Anticancer Drug Screen. Data for tumor model L1210 Leukemia (intraperitoneal) in CD2F1 (CDF1) mice
# Details: endpoint: mean survival time, higher = longer survival
# Summary of the method: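 Tumor-bearing mice (transplanted tumor) were split into treated and vehicle control groups, and the measured endpoint of each treated group was divided by that of its vehicle controls.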
structure (smiles),measurement,setting,value
O=c1[nH]cc(F)c(=O)[nH]1,T/C,"dose: 3.13 mg/kg/injection, schedule: Q01DX009 (ip), vehicle: saline",111 % of control
same,T/C,"dose: 3.75 mg/kg/injection, schedule: Q01DX003 (oral), vehicle: saline",100 % of control
same,T/C,"dose: 4.0 mg/kg/injection, schedule: Q01DX009 (oral), vehicle: saline",101 % of control
same,T/C,"dose: 6.25 mg/kg/injection, schedule: Q03HX024 (oral), vehicle: saline",98 % of control
same,T/C,"dose: 7.5 mg/kg/injection, schedule: Q01DX003 (oral), vehicle: saline",98 % of control
same,T/C,"dose: 7.5 mg/kg/injection, schedule: Q01DX005 (oral), vehicle: saline",101 % of control
same,T/C,"dose: 8.0 mg/kg/injection, schedule: Q01DX009 (oral), vehicle: saline",101 % of control
same,T/C,"dose: 8.0 mg/kg/injection, schedule: Q03HX024 (ip), vehicle: water",184 % of control
same,T/C,"dose: 10.0 mg/kg/injection, schedule: Q03HX024 (ip), vehicle: saline",213 % of control
same,T/C,"dose: 12.5 mg/kg/injection, schedule: Q03HX008 (oral), vehicle: saline",100 % of control
same,T/C,"dose: 12.5 mg/kg/injection, schedule: Q03HX016 (ip), vehicle: saline",96 % of control
same,T/C,"dose: 14.0 mg/kg/injection, schedule: Q01DX009 (ip), vehicle: saline sonified",176 % of control
same,T/C,"dose: 14.0 mg/kg/injection, schedule: Q01DX009 (ip), vehicle: saline with Tween-80",186 % of control
same,T/C,"dose: 14.0 mg/kg/injection, schedule: Q01DX017 (ip), vehicle: saline",211 % of control
same,T/C,"dose: 15.0 mg/kg/injection, schedule: Q01DX003 (oral), vehicle: saline",99 % of control
same,T/C,"dose: 15.0 mg/kg/injection, schedule: Q01DX005 (oral), vehicle: saline",103 % of control
same,T/C,"dose: 15.7 mg/kg/injection, schedule: Q01DX001 (oral), vehicle: saline",110 % of control
same,T/C,"dose: 15.7 mg/kg/injection, schedule: Q## X003 (oral), vehicle: saline",112 % of control
same,T/C,"dose: 16.0 mg/kg/injection, schedule: Q03HX016 (ip), vehicle: water",184 % of control
same,T/C,"dose: 18.0 mg/kg/injection, schedule: Q01DX009 (ip), vehicle: saline",194 % of control
same,T/C,"dose: 20.0 mg/kg/injection, schedule: Q01DX005 (ip), vehicle: saline",187 % of control
same,T/C,"dose: 20.0 mg/kg/injection, schedule: Q01DX006 (ip), vehicle: saline",183 % of control
same,T/C,"dose: 20.0 mg/kg/injection, schedule: Q01DX007 (ip), vehicle: saline",192 % of control
same,T/C,"dose: 20.0 mg/kg/injection, schedule: Q01DX009 (ip), vehicle: saline sonified",178 % of control and 197 % of control
same,T/C,"dose: 27.0 mg/kg/injection, schedule: Q01DX005 (ip), vehicle: saline",193 % of control
same,T/C,"dose: 30.0 mg/kg/injection, schedule: Q01DX005 (ip), vehicle: saline",178 % of control and 188 % of control and 191 % of control
same,T/C,"dose: 30.0 mg/kg/injection, schedule: Q01DX009 (ip), vehicle: saline with Tween-80",177 % of control
same,T/C,"dose: 31.3 mg/kg/injection, schedule: Q01DX001 (oral), vehicle: saline",108 % of control
same,T/C,"dose: 31.3 mg/kg/injection, schedule: Q## X003 (oral), vehicle: saline",108 % of control
same,T/C,"dose: 32.0 mg/kg/injection, schedule: Q01DX009 (ip), vehicle: water",100 % of control
same,T/C,"dose: 32.0 mg/kg/injection, schedule: Q03HX008 (ip), vehicle: water",104 % of control
same,T/C,"dose: 32.0 mg/kg/injection, schedule: Q03HX024 (ip), vehicle: water",100 % of control
same,T/C,"dose: 33.8 mg/kg/injection, schedule: Q01DX009 (ip), vehicle: saline",95 % of control
same,T/C,"dose: 39.0 mg/kg/injection, schedule: Q01DX009 (ip), vehicle: saline",104 % of control and 108 % of control
same,T/C,"dose: 39.0 mg/kg/injection, schedule: Q01DX017 (ip), vehicle: saline",105 % of control
same,T/C,"dose: 40.0 mg/kg/injection, schedule: Q01DX006 (ip), vehicle: saline",101 % of control
same,T/C,"dose: 40.0 mg/kg/injection, schedule: Q01DX007 (ip), vehicle: saline",102 % of control
same,T/C,"dose: 40.0 mg/kg/injection, schedule: Q03DX003 (ip), vehicle: saline",180 % of control
same,T/C,"dose: 40.0 mg/kg/injection, schedule: Q03HX016 (ip), vehicle: saline",82 % of control
same,T/C,"dose: 40.0 mg/kg/injection, schedule: Q04DX003 (ip), vehicle: saline sonified",186 % of control
same,T/C,"dose: 50.0 mg/kg/injection, schedule: Q01DX009 (ip), vehicle: saline",90 % of control and 92 % of control
same,T/C,"dose: 50.0 mg/kg/injection, schedule: Q03HX016 (ip), vehicle: saline",104 % of control
same,T/C,"dose: 50.0 mg/kg/injection, schedule: Q03HX024 (oral), vehicle: saline",87 % of control
same,T/C,"dose: 60.0 mg/kg/injection, schedule: Q01DX003 (oral), vehicle: saline",103 % of control
same,T/C,"dose: 60.0 mg/kg/injection, schedule: Q01DX005 (ip), vehicle: saline",102 % of control
same,T/C,"dose: 60.0 mg/kg/injection, schedule: Q04DX003 (ip), vehicle: saline sonified",188 % of control and 209 % of control
same,T/C,"dose: 60.0 mg/kg/injection, schedule: Q04DX003 (ip), vehicle: saline with Tween-80",181 % of control and 214 % of control
same,T/C,"dose: 62.5 mg/kg/injection, schedule: Q## X003 (oral), vehicle: saline",106 % of control
same,T/C,"dose: 64.0 mg/kg/injection, schedule: Q01DX009 (ip), vehicle: water",106 % of control
same,T/C,"dose: 64.0 mg/kg/injection, schedule: Q03HX008 (ip), vehicle: water",87 % of control
same,T/C,"dose: 64.0 mg/kg/injection, schedule: Q03HX016 (ip), vehicle: water",96 % of control
same,T/C,"dose: 66.0 mg/kg/injection, schedule: Q04DX003 (ip), vehicle: saline",195 % of control and 197 % of control
